In PubChem BioAssay AID1347417 (National Center for Advancing Translational Sciences (NCATS), 2020):
About 5,300 (4.4%) of roughly 120,000 compounds were called active. Inconclusive means that the source gave no clear call. Such entries were picked first, then a sample of the others. The call rests on the fitted dose curve; in most records, active means well fitted inhibition curve with a large enough effect; inconclusive means small, poorly fitted or top-dose-only effect; inactive means no such curve, though single readings can be large or run the other way. A potency beside an inconclusive call is a rough fit, not a confirmed value.

Test: qHTS Primary assay for Inhibitors of Plasmodium falciparum Dd2 growth in vitro; further: nearly all actives have a fitted effect of over 65% in size
Conditions: P. falciparum Dd2 growth, SYBR Green, 72 h; series mostly up to 28.9 µM
Procedure, shortened: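 Readout: SYBR Green fluorescence, 485 nm excitation, 535 nm emission, after ~16 h lysis at 37C. Before that, Dd2-infected red cells (2.5% hematocrit) grew 72 h with compound, 29 uM top final concentration.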
Potency means the concentration at half of the fitted maximal effect; tags describe the fitted curve by direction and shape.

| Compound | Potency |
| --- | --- |
| COc1ccc(-c2cc(C[C@@H]3CC[C@H](O)[C@@H](CNC(=O)C(C)(C)C)O3)no2)cc1 | inactive |
| CCOc1ccc(N(C(C)C(=O)Nc2cc(Cl)ccc2OC)S(C)(=O)=O)cc1 (configuration not stated) | inconclusive: 10 µM [inhibitor, single point] |
| COc1cc(NC(=O)c2oc3c(c2C)-c2nn(Cc4cccc(Cl)c4)cc2CC3)cc(OC)c1 | inactive |
| COc1ccccc1N1CCN(C(=O)C(C)[C@@H]2CCc3c(C)cc(OCCN4CCOCC4)c(C)c3C2)CC1 (some centres not stated) | inconclusive: 1 µM [inhibitor, partial curve, poor fit] |
| COCCn1cnnc1CNc1cc(C)nc2c(C)c(C)nn12 | inactive |
| COc1ccccc1C(=O)NC[C@@H]1C=C(C)[C@H](Cc2nc3ccncc3[nH]2)C[C@H]1C(C)C | inconclusive: 10 µM [inhibitor, partial curve, poor fit] |
| Cc1cccc(NC(=O)N2C[C@@H](F)C[C@H]2C(=O)N2CCc3ccccc3C2)c1 | inactive |
| Cn1cc(-c2cnc3[nH]cc(CC(=O)Nc4ccc(C(F)(F)F)cc4)c3c2)cn1 | inconclusive: 3.16 µM [inhibitor, single point] |
| Cc1cc(C)c2nc(N(Cc3cccnc3)C(=O)c3cccs3)sc2c1 | active: 10 µM |
| COCCOc1ncccc1-c1noc([C@@H]2CCCN2CC(C)(C)C)n1 | inconclusive: 5.62 µM [inhibitor, single point] |
| CN(C)C[C@@H]1CN(S(C)(=O)=O)C[C@H]1NC(=O)c1ccccc1 | inconclusive: 0.282 µM [inhibitor, full curve, poor fit] |
| O=C(NC1CCCC1)c1ccc2c(c1)n(Cc1ccccc1)c(=O)c1ccnn12 | inactive |
| Cc1ncc(CN2CCC3(CC2)CCN(Cc2ccoc2)CC3CO)n1C (configuration not stated) | inactive |
| C[C@]1(CO)[C@H]2Cc3sc(NC(=O)c4ccc(F)cc4)nc3[C@@H](CC(=O)NCc3cccs3)[C@]2(C)CC[C@H]1O | inconclusive: 8.91 µM [inhibitor, partial curve, poor fit] |
| COCCOc1ncccc1-c1noc([C@@H]2CCCN2C(C)C)n1 | inconclusive: 31.6 µM [inhibitor, single point] |
| O=C(Nc1ccccc1)N1CCCC(Cn2c(C3CC3)nc3cccnc32)C1 (configuration not stated) | inconclusive: 1.58 µM [inhibitor, partial curve, poor fit] |
| COc1ccc(-c2cc3c(=O)n(CCNC(=O)c4c(F)cccc4Cl)ccn3n2)cc1 | inconclusive: 0.224 µM [inhibitor, full curve, poor fit] |
| CCOc1ccccc1NC(=O)Cn1c(-c2cccc(Cl)c2)nc(C)c(CCO)c1=O | inconclusive: 10 µM [inhibitor, partial curve, poor fit] |
| S=C(NC1CCCCC1)N[C@H]1CO[C@H]2[C@@H]1OC[C@@H]2n1nnnc1Oc1ccc(-n2ccnc2)cc1 | inconclusive: 11.2 µM [inhibitor, partial curve, poor fit] |
| O=C(c1cccc(Cl)c1)N1CCC2(CC1)N=C(c1ccc(Br)cc1)NO2 | inactive |
| Cc1ccc(Cn2c(CN3CCC(C(=O)NCCc4ccccc4)CC3)cc3ccccc32)cc1 | active: 7.94 µM |

| Compound | Potency |
| --- | --- |
| N#Cc1ccc(C(=O)Nc2ccc3c(c2)N(C2CCCC2)C(=O)c2ccccc2S3)cc1 | active: 11.2 µM |
| CCN(Cc1ccccc1)S(=O)(=O)c1cc(C(=O)Nc2cc(Cl)cc(Cl)c2)ccc1F | inconclusive: 12.6 µM [inhibitor, single point] |
| CC(C)(C)C1CCc2c(sc(NC(=O)c3ccc(Cl)cc3)c2C(=O)NCc2ccco2)C1 (configuration not stated) | active: 5.62 µM |
| Cc1cccc(OC[C@H]2C[C@@H](NC(=O)c3cc(C)n(C)n3)[C@H](O)[C@@H]2O)n1 | inactive |
| CC(C(=O)NCc1cccnc1N(C)CCc1ccccn1)n1cccc1 (configuration not stated) | inactive |
| O=C(CN1C(=O)NC(c2ccccc2Cl)C2=C1COC2=O)Nc1ccccc1C(F)(F)F (configuration not stated) | inconclusive: 12.6 µM [inhibitor, single point] |
| O=C1CC(c2ccccc2)N(S(=O)(=O)c2ccccc2)CCCCCCN1 (configuration not stated) | inconclusive: 20 µM [inhibitor, single point] |
| O=C1Nc2ccccc2OCC12CCN(Cc1ccccn1)CC2 | inconclusive: 10 µM [inhibitor, partial curve] |
| COC(=O)c1ccc(OCC2c3cc(OC)c(OC)cc3CCN2C(=O)Cc2ccccc2)cc1 (configuration not stated) | inconclusive: 11.2 µM [inhibitor, single point] |
| O=C1CC(NC2CCSCC2)CN1CCc1cccc(Cl)c1 (configuration not stated) | inconclusive: 12.6 µM [inhibitor, single point] |
| Cc1ccccc1C(=O)N1CCCC(Nc2ccc(F)cc2)C1 (configuration not stated) | inactive |
| CC1=C[C@@H](CN2CCN(c3ccccn3)CC2)[C@H](C(C)C)C[C@H]1Cc1nnc(-c2ccc([N+](=O)[O-])cc2)o1 | active: 3.55 µM |
| C=CCO[C@@H]1CCN2C(=O)c3cc(-c4cc(Cl)ccc4OC)ccc3NC(=O)[C@H]12 | inconclusive: 0.447 µM [inhibitor, full curve, poor fit] |
| Cc1ccsc1C(=O)N1CCCC1c1noc(COc2ccc(F)cc2)n1 (configuration not stated) | inconclusive: 17.8 µM [inhibitor, single point] |
| CC(=O)Nc1ccc2nc(SCCOc3cc(C)cc(C)c3)sc2c1 | inactive |
| Cc1ccc(Cn2cccc2-c2nc(-c3ccc(F)cc3)no2)cc1 | inconclusive: 10 µM [inhibitor, single point] |
| CC(=O)N1c2ccc(S(=O)(=O)NCC3CCC(C(=O)Nc4cc(C)ccc4C)CC3)cc2CC1C (configuration not stated) | inconclusive: 17.8 µM [inhibitor, single point] |
| CC(C)(C)OC(=O)N1CCC(c2c(C(=O)NCCc3ccccc3)cnn2-c2ccc(F)cc2)CC1 | active: 11.2 µM |
| CN1[C@@H](CCC(=O)NCc2ccco2)CNC(=O)[C@@H]2[C@H]1CCN2Cc1cccc(OC(F)(F)F)c1 | inactive |
| COc1ccc(Nc2ncc(-c3ccccc3OC)c3c2OCC3)cc1 | inactive |
| CCCc1noc(-c2ccn3c(CNC(=O)c4cccc(N(C)C)c4)nnc3c2)n1 | inconclusive: 0.355 µM [inhibitor, full curve, poor fit] |
